Measured values published in PubChem BioAssay AID761 (NMMLSC, 2007).
The campaign covered roughly 190,000 compounds. About 400 (0.21%) were called active. Inconclusive means that the source gave no clear call. Such entries were picked first, then a sample of the others.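 The calls were made as follows: active = percent activity GTP binding at least 20 points away from the 100% baseline, either down as inhibitor or up as activator; inconclusive = compound flagged as likely green fluorescent from well-wide comparison; inactive = the rest.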

Each compound was assayed against Cell division control protein 42 homolog (Homo sapiens) (UniProt P60953) (assay: wildtype Cdc42 fluorescent GTP binding changes, either direction – biochemical, multiplex bead flow cytometry, Bodipy-GTP, primary screen (AID 761;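 also: median bead fluorescence of bound Bodipy-FL-GTP at 100 nM; 0% = excess unlabeled GTP control and 100% = no compound control; below 100% means less GTP binding so inhibitor and above means activator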)). Conditions: GST-Cdc42 beads, at 10 µM, actives lie on both sides.
Sequence of UniProt P60953 (P60953 whole entry, looked up): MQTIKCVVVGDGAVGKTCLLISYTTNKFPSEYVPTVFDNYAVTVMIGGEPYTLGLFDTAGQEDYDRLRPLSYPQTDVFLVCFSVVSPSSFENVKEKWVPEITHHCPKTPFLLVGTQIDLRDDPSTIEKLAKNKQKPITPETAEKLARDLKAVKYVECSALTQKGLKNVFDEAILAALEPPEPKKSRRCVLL

Compound | percent activity (GTP binding)
O=C(O)c1ccccc1Sc1ncnc2sc3c(c12)CCC3 | active: 129% [activator]
CCC(=O)NC(C)C(c1cccs1)N1CCN(c2ccccc2)CC1 (stereo not given) | inconclusive: 103%
CCN(CC)c1ccc(/C=N/NC(=O)c2cccc(N3CCCC3=O)c2)cc1 | inactive: 96%
O=C(NCc1ccco1)c1cccn2c(=O)c3c4c(sc3nc12)CCCC4 | inconclusive: 80%
Cc1noc(C)c1CS(=O)(=O)c1ccc([N+](=O)[O-])cc1 | inactive: 97%
Cc1c(C(=O)Nc2ccccc2)cn2c(nc3ccccc32)c1C#N | inconclusive: 92%
CC12CCC(C(=O)NCCCN3CCOCC3)(OC1=O)C2(C)C (stereo not given) | inactive: 105%
CS(=O)(=O)Nc1cccc(C2=NN(S(=O)(=O)c3ccccc3)C(c3cccs3)C2)c1 (stereo not given) | inconclusive: 109%
O=C(c1cc2cc([N+](=O)[O-])ccc2s1)N1CCCCC1 | inactive: 100%
CCCCN(CC)c1nc(N)c(C#N)c(CC#N)c1C#N | inconclusive: 89%
Cn1nc(C(F)(F)F)c(CO)c1Sc1ccc(F)cc1 | inactive: 93%
CCc1ccc(NC(=O)c2cc3c(C)nc4ccccc4c3o2)cc1 | inactive: 85%
O=C1NCCCC1C(=O)Nc1ccccn1 (stereo not given) | inconclusive: 105%
CCOC(=O)c1ccc(N2CCN(c3ccccc3F)CC2)c(NC(=O)Nc2ccccc2)c1 | inconclusive: 96%
O=C(c1ccc2c(=O)n(-c3ccccc3)c(=O)[nH]c2c1)N1CCN(c2ccc(F)cc2)CC1 | inactive: 106%
COc1cccc(NC(=O)CC2(CC(=O)O)CCCC2)c1 | inconclusive: 94%
Oc1c(Br)cc(C=Nc2ccc3nc(-c4ccccc4)[nH]c3c2)c(O)c1Br | inconclusive: 84%
COc1ccc(CCNC(=O)C2CC(=O)N(c3ccc(Br)cc3)C2)cc1OC (stereo not given) | inconclusive: 96%
Cn1c(C(=O)N2CCN(C(=O)c3ccco3)CC2)cc2c(=O)n3ccccc3nc21 | inconclusive: 88%
O=C(CNC(=O)c1ccccc1)Nc1cccc(C(F)(F)F)c1 | inconclusive: 304%

Compound | percent activity (GTP binding)
Cc1c(N=Cc2ccc(-c3ccc(Cl)cc3)o2)c(=O)n(-c2ccccc2)n1C | inconclusive: 94%
S=c1[nH]c2ccccc2o1 | inactive: 99%
CC(C)C(=O)N1C2CCC1CC(O)(c1ccc(F)cc1)C2 (stereo not given) | inconclusive: 94%
CS(=O)(=O)c1ccc(C(=O)OCc2nnc(-c3ccccc3)o2)cc1[N+](=O)[O-] | active: 76%
Cc1cc(NC(=O)c2sccc2C)n(-c2nc3ccccc3[nH]2)n1 | inconclusive: 84%
CC(Oc1ccc(Cl)cc1Cl)c1nc(-c2ccc(NC(=O)c3ccco3)cc2)no1 (stereo not given) | inconclusive: 107%
COc1ccc(/C=C2/N=C3CCCCCN3C2=O)cc1 | inactive: 99%
NC1=NC(=O)/C(=C/c2cn(CCC(=O)O)nc2-c2ccc(Cl)cc2)S1 | inactive: 85%
Cc1cccnc1NC(=O)CSc1nnc(Cc2ccccc2)o1 | inactive: 102%
CN(C)c1ccc(C(CNS(=O)(=O)c2ccc3ccccc3c2)c2c[nH]c3ccccc23)cc1 (stereo not given) | inconclusive: 94%
COc1ccc(-c2csc(N3CCOCC3)n2)cc1OC | inconclusive: 107%
O=C(CCc1nc2ccccc2c(=O)[nH]1)Nc1ccc(N2CCCCC2)cc1 | inconclusive: 96%
COc1ccc2cc(C(C)=O)c(=O)oc2c1 | inconclusive: 103%
CN(C)c1nnnn1-c1ccc(Cl)cc1 | inactive: 96%
Cc1ccc(Nc2nc(CSc3nnnn3-c3ccccc3)cs2)cc1 | inconclusive: 88%
CCN1C(=O)/C(=C/C=C2/Sc3ccc4ccccc4c3N2CCO)SC1=S | active: 78%
CN1CCN(C(=O)C2=C[C@H](c3csc4ccccc34)C[C@H](OCCCCO)O2)CC1 | inactive: 95%
Cc1ccc(-n2nc3c([n+]2[O-])CCc2c-3no[n+]2[O-])cc1 | inconclusive: 103%
COc1cc(Cl)cc(C(=O)O)c1OCC(=O)O | inactive: 93%
Cc1cc(C)cc(N(C(C)C(=O)N2CCOCC2)S(C)(=O)=O)c1 (stereo not given) | inconclusive: 91%

Compound | percent activity (GTP binding)
Cc1nn2c(-c3cccc(NC(=O)c4ccco4)c3)nnc2c2ccccc12 | inconclusive: 81%
CCNC(=O)CC1C(=O)N(c2ccc(F)cc2)C(=S)N1CCc1ccncc1 (stereo not given) | inconclusive: 98%
Cc1nc(Nc2ccc(C(=O)O)cc2)nc(Nc2ccc(C(=O)O)cc2)c1[N+](=O)[O-] | active: 55%
COc1ccc(CCC(=O)NCCCNC(=O)CCc2ccc(OC)cc2)cc1 | inactive: 106%
Cc1cc(C)nc(NS(=O)(=O)c2ccc(N/C=C\C(=O)c3ccc(Cl)cc3)cc2)n1 | inconclusive: 103%
CCCc1cc(=O)[nH]c(SCC(=O)Nc2ccc(Br)cc2Br)n1 | inactive: 97%
O=C(Nc1nc2ccccc2n1CCN1CCCCC1)C1CCCCC1 | inconclusive: 105%
CCOc1ccccc1C1C(C(=O)OC)=C(N)OC2=C1C(=O)CCC2 (stereo not given) | active: 125% [activator]
Cc1ccc(C(=O)N/N=C2\CC3CC=CC23)c(C)c1 (stereo not given) | inactive: 95%
COc1ccc(C(=S)N2CCCCC2)cc1Br | inconclusive: 92%
N#C/C(=C\c1ccc(OCC(N)=O)cc1)S(=O)(=O)c1ccccc1 | inactive: 95%
Cc1cc2cc(C(c3nnnn3Cc3ccco3)N3CCc4ccccc43)c(=O)[nH]c2cc1C (stereo not given) | inconclusive: 94%
O=C(O)c1ccc(N2CC3CC(C2)c2cccc(=O)n2C3)c(NC(=S)Nc2ccc(Br)cc2)c1 (stereo not given) | inactive: 103%
CCC(C)NC(=O)CSc1c2c(nc3ccccc13)CCCC2 (stereo not given) | inactive: 98%
CCOC(=O)c1cc2c(=O)[nH]ccc2nc1C | inconclusive: 91%
O=C(O)C1CC=CCC1C(=O)NNS(=O)(=O)c1ccccc1 (stereo not given) | inactive: 96%
COC(=O)c1c(NC(=O)c2cccs2)sc2c1CCCC2 | inconclusive: 106%
CC(C)COC(=O)NCCCOC(=O)Nc1ccccc1 | inconclusive: 98%
Cc1ccc(NC(=O)Cn2ccc([N+](=O)[O-])n2)cc1C | inactive: 99%
COc1ccc(CNc2nn[nH]n2)cc1OC | inconclusive: 105%
